From ChEMBL document CHEMBL4888484, “Replenishing the malaria drug discovery pipeline: Screening and hit evaluation of the MMV Hit Generation Library 1 (HGL1) against asexual blood stage Plasmodium falciparum ,using a nano luciferase reporter read-out” (2022) come the findings set out here.

In all, about 150,000 compounds went through this assay and about 540 (0.36%) showed an effect of 50% or more. The list shows a part of the results.

This experiment deals with Plasmodium falciparum. As to the kind of experiment: Primary screen in NF54 nanoGlo assay, in single point, at 2uM, 72h; a lower Z score goes with more inhibition. The class given is functional, Erythrocyte. The note with it: timepoint 72 hour.
Broadly, the % Inhibition is the relative decrease from the control value, in per cent. For the compound `N#CCCN(CC1CC1)C(=O)c1cnc(-c2ccc(F)c(F)c2)s1`, the “% Inhibition” value is -6% and the Z score worked out at 0.65.

Consider `CC(C)(NC(=O)C(F)(F)F)C(=O)N1CC(O)(C2CC2)C1`, for which the “% Inhibition” value was -10% and the Z score is reported as 1.9.

On to `CCC(C)c1csc(NC(=O)N(C)CC(C)C(=O)NC)n1` (stereo unspecified), for which the “% Inhibition” value is given as -17% and the Z score was 1.72.

On to `COCCN(CCC(=O)N1CCCC1)C(=O)c1cc(-c2cc(C)ccc2C)on1`, for which the “% Inhibition” value was -19% and the Z score turned out to be 2.99.

With `CCc1noc(C2(NCc3cc(Cl)sc3Cl)CCOCC2)n1`, the “% Inhibition” value is recorded as -6% and the Z score came out at 0.82.

On to `O=C(C1=COCCC1)N1CCCC[C@@H]1CCc1ccccc1`, for which the “% Inhibition” value is given as -10% and the Z score worked out at 1.44.

With `COc1ccc(S(=O)(=O)N2CC(=O)N3CCc4ccccc4[C@@H]3C2)cc1C`, the “% Inhibition” value was determined as 1% and the Z score is on record as -0.1.

Turning to `CN(Cc1nn(C)c2cccc(Cl)c12)C[C@H]1CC(=O)N(C2CCCC2)C1`, the “% Inhibition” value is reported as -1% and the Z score is given as 0.27.

`CCC[C@@H](C(=O)NCc1cccnc1)n1c(Cc2ccc(Cl)cc2Cl)nc2ccccc21`: the “% Inhibition” value was found to be 2% and the Z score is given as -0.17.

Take `Cc1cc(C(=O)Nc2ccc(S(=O)(=O)N3CCCC3)cc2)no1`: the “% Inhibition” value is -13% and the Z score was 1.11.

Take `COC[C@@H](c1ccccn1)N(C)C(=O)c1c(C)nc2ccc(Cl)cn12`: the “% Inhibition” value is 0% and the Z score was 0.01.

Take `O=C(CCS(=O)(=O)Cc1ccc(F)cc1Cl)Nc1ccc(F)cc1`: the “% Inhibition” value is reported as -8% and the Z score turned out to be 1.51.

Take `c1ccc(CCOCc2cccc(NCc3cc[nH]n3)c2)cc1`: the “% Inhibition” value was -5% and the Z score worked out at 0.61.

As for `CC1(C)COCCN1CCNC(=O)N1CC[C@H](CO)C1`, the “% Inhibition” value stood at 32% and the Z score was -3.57.

Regarding `CCc1noc([C@@H]2CCCN2C(=O)Cc2ccc3c(c2)OCO3)n1`, the “% Inhibition” value is recorded as -8% and the Z score worked out at 1.22.

As for `CCC(C)(C)C(=O)N1C[C@H](c2nc(C)no2)C2(CCOCC2)C1`, the “% Inhibition” value was -7% and the Z score is on record as 1.23.

Consider `CCN(CC1CCN(c2ccccn2)CC1)C(=O)c1cnccn1`, for which the “% Inhibition” value turned out to be 0% and the Z score is listed as -0.04.

In the case of `Cc1c(S(=O)(=O)c2ccc(F)cc2)c(N)n(Cc2ccccn2)c1C`, the “% Inhibition” value is -1% and the Z score stood at 0.12.

Turning to `O=C(O)c1cc(N2C[C@@H]3[C@H](C2)[C@H]2CC[C@@H]3O2)nc2ccccc12`, the “% Inhibition” value was -4% and the Z score was determined as 0.87.

Consider `CCCCS(=O)(=O)N1CC[C@H](CNc2nccc(C)n2)C1`, for which the “% Inhibition” value is given as -10% and the Z score stood at 1.93.

Consider `O=C(Nc1nccs1)c1ccc2[nH]c3c(c2c1)CCCC3`, for which the “% Inhibition” value was -11% and the Z score was 1.54.

Consider `Cc1c(CC(=O)NC(C)C)c2c(n1Cc1ccccc1F)CCCC2=O`, for which the “% Inhibition” value is -14% and the Z score was 2.11.

Regarding `Cc1nn(C)c2nc(NC[C@H](C)Oc3cccnc3)sc12`, the “% Inhibition” value is -9% and the Z score turned out to be 1.68.

With `CN1CCO[C@@H](CNCC(=O)N(C)Cc2cccs2)C1`, the “% Inhibition” value is on record as -6% and the Z score was found to be 0.87.

Consider `O=C(NCCc1cccnc1)C1CC2CCC1C2` (stereo unspecified), for which the “% Inhibition” value was -13% and the Z score is 1.68.

Consider `O=C(c1cc2ccccc2[nH]1)N1CCC[C@H]1c1ccncc1`, for which the “% Inhibition” value is given as -13% and the Z score came out at 1.82.

In the case of `COc1cc(C)cc(NC(=O)N2CC[C@H](CN3CCCC3)C2)c1C`, the “% Inhibition” value worked out at 10% and the Z score is reported as -1.78.

Take `C[C@@H](C(=O)N(C)Cc1cccc(F)c1)N1CCCN(S(C)(=O)=O)CC1`: the “% Inhibition” value was -2% and the Z score came out at 0.27.

With `COC(=O)C1CCc2nnc(C3(C)CCCO3)n2CC1` (stereo unspecified), the “% Inhibition” value stood at 2% and the Z score was -0.39.

On to `CCOc1ccc([C@@H](O)Cn2ccn3nc(-c4ccccc4C)cc3c2=O)cc1`, for which the “% Inhibition” value is recorded as -4% and the Z score is on record as 0.33.

Regarding `Cc1cccc([C@@H](NS(N)(=O)=O)C(C)(C)C)c1`, the “% Inhibition” value is on record as 8% and the Z score is -1.2.

For the compound `COc1ccc(CCS(=O)(=O)NCC2CCN(c3cnccn3)CC2)cc1`, the “% Inhibition” value is -12% and the Z score turned out to be 1.88.

For the compound `CC(C)(CC1CCCN(C(=O)NC2CC3CC3C2)C1)C(N)=O` (stereo unspecified), the “% Inhibition” value worked out at 1% and the Z score is -0.2.

Regarding `NS(=O)(=O)CCN1CCCC1C1CCCc2ccccc21` (stereo unspecified), the “% Inhibition” value is reported as 4% and the Z score is reported as -0.54.

Consider `CCn1c(CO)nnc1[C@H]1C[C@H](NC(=O)CCc2c(C)nn(C)c2C)C1`, for which the “% Inhibition” value stood at 1% and the Z score is -0.17.

Turning to `Cc1cc(CN2C(=O)N[C@@](C)(CCC(C)C)C2=O)on1`, the “% Inhibition” value is -11% and the Z score is 0.98.

Take `CCCNS(=O)(=O)c1cc(-c2nc(C)c(C(=O)N3CCC(C)CC3)s2)n(C)c1C`: the “% Inhibition” value was -5% and the Z score turned out to be 0.65.

In the case of `Cc1ccn2c(CN3CCN([C@H]4CCN(Cc5ccccc5)C4)CC3)c(C)nc2c1`, the “% Inhibition” value stood at 57% and the Z score was -7.67.

Consider `COCC1(C(=O)N2CCC3(CCCC3)C2)CCC1`, for which the “% Inhibition” value is given as 1% and the Z score is -0.22.

As for `C[C@H]1CCCCN1C(=O)CN1CCOCC12CCCC2`, the “% Inhibition” value was 2% and the Z score was -0.24.

`Fc1cc(Br)cc([C@H](CC2CC2)NCc2ccno2)c1`: the “% Inhibition” value is reported as -5% and the Z score is on record as 0.56.

`CC(C)[C@H](Cn1ccnc1)NC(=O)c1ccc(=O)n(C)c1`: the “% Inhibition” value is given as -11% and the Z score is listed as 2.18.

As to `C=CCNC(=O)CN1CCC[C@H](OCC)C1`, the “% Inhibition” value is -5% and the Z score is 0.7.
